# Reference: paper PMC4336329 (PLoS ONE, 2015)
# The whole screen tested about 310,000 compounds, of which about 2,200 (0.71%) showed an effect of 50% or more. The effect is printed as a negative number. The list shows a part of the results.
# Molecular target: human ether-à-go-go-related gene (hERG) potassium channel (human, UniProt Q12809)
# Experiment: primary screen, population patch clamp on CHO cells stably expressing hERG
# human ether-à-go-go-related gene (hERG) potassium channel, sequence (Q12809 whole entry, looked up): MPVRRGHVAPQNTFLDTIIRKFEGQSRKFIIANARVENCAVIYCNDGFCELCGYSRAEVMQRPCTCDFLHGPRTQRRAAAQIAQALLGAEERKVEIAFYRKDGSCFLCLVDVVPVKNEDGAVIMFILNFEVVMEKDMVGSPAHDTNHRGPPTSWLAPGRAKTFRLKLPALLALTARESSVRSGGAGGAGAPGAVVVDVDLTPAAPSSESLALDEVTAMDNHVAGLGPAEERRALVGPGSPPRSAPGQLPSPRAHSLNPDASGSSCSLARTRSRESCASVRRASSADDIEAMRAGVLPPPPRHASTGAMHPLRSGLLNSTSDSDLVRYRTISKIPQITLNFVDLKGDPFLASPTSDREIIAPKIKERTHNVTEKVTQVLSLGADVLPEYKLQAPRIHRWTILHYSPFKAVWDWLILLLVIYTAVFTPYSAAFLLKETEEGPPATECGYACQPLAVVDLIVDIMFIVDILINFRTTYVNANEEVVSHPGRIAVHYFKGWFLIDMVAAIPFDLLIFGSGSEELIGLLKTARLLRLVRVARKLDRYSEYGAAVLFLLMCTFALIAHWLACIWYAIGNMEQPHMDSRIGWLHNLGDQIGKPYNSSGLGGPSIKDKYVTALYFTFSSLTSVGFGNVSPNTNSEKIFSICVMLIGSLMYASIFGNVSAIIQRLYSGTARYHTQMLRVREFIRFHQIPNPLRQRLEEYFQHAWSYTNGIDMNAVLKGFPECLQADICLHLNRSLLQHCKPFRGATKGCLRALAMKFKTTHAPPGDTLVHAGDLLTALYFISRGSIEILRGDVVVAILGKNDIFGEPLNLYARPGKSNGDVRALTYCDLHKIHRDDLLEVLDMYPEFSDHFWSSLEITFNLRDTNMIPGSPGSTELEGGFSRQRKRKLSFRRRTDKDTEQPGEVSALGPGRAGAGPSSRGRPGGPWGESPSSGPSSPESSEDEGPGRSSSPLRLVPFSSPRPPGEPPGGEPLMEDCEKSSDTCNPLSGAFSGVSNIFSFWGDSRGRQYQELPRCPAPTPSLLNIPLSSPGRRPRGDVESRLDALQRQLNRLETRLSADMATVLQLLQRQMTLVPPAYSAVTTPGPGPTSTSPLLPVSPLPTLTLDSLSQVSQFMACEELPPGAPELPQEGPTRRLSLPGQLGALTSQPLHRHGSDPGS
row,Structure (SMILES),"hERG current change (%, negative = inhibition) at 1uM [%]"
1,COc1ccc(CSc2ccc(-c3nc4ccccn4c3NCc3ccccc3)cc2OC)cc1.O=C(O)C(F)(F)F,7.84
2,CC(C)C[C@H](NC(=O)c1nc[nH]c1C(=O)N[C@@H](CC(C)C)C(=O)OC(C)(C)C)C(=O)OC(C)(C)C,17.6
3,COC(=O)c1ccc(NC(=O)CSc2n[nH]c(-c3ccncc3)n2)cc1,9.54
4,C=C1c2cccc(O)c2C(O)=C2C(=O)[C@]3(O)C(O)=C(C(N)=O)C(=O)[C@@H](N(C)C)[C@@H]3[C@@H](O)[C@H]12.Cl,14.4
5,O=[N+]([O-])c1ccc(-c2c(O)c3ccccc3c3nc4ccccc4nc23)cc1,15.2
6,CN(Cc1ccccc1F)Cc1cc(=O)oc2cc(O)c(Cl)cc12,13.8
7,Cc1cccc(NC(=O)N2CCCC2C(=O)Nc2ccccc2)c1 (stereo not shown),8.57
8,COc1ccccc1C(=O)NNC1=NS(=O)(=O)c2ccccc21,17.8
9,Cc1ccc(S(=O)(=O)N2CCC(C(=O)OCC(=O)NCc3ccco3)CC2)cc1C,-1.32
10,COc1ccc(N(CC(=O)NCCC2=CCCCC2)S(=O)(=O)c2ccccc2)c(OC)c1,6.59
11,CCOC(=O)Cn1c(SC)nc2sc3c(c2c1=O)CC(C)(C)OC3,10.6
12,CCn1nc(C)c(/C=N/NC(=O)c2nc3nc(C)cc(C)n3n2)c1C,9.71
13,O=C(CCC(=O)N1CCN(c2ccccc2F)CC1)N1CCN(c2ccccc2)CC1,-2.67
14,O=C(CN1CCN(C(=O)N2CCCCC2)CC1)Nc1ccc(F)cc1,-76.5
15,Cc1ccc(C)c(Cn2nnc(C(=O)Nc3ccc4c(c3)OCCO4)c2N)c1,8.89
16,C[C@@H](C(=O)OCn1nnc2ccccc2c1=O)N1C(=O)C2CCCCC2C1=O (stereo partly shown),9.74
17,CCOc1ccc(CC(=O)N/N=C(\C)c2cccnc2)cc1OCC,8.19
18,COc1cccc(NC(=O)Nc2ccc(Cc3ccncc3)cc2)c1,15.6
19,CCOC(=O)C1CCN(C(=O)N(CC)CC)CC1,3.77
20,COc1cc(-c2cc(-c3ccccc3)nc(SCC(=O)Nc3nccs3)c2C#N)cc(OC)c1OC,0.652
21,Cc1ccc(C)c(Cn2nnc3c(=O)[nH]c(C4CCCN(C(=O)C5CCCCC5)C4)nc32)c1 (stereo not shown),-20.7
22,Cc1onc(-c2ccccc2Cl)c1C(=O)N(C)C1CCCCC1,6.24
23,CCOC(=O)CCCNC(=O)COC(=O)c1cc(C)cc(C)c1,10.5
24,CC(=O)OC1OCCOC1NC(=S)Nc1ccc(C)cc1 (stereo not shown),8.06
25,COc1ccc(C)cc1NC(=O)C(OC(=O)c1cnccn1)c1ccccc1 (stereo not shown),-2.84
26,O=C(CSCc1ccc(C(=O)O)cc1)Nc1ccccc1,9.46

row,Structure (SMILES),"hERG current change (%, negative = inhibition) at 1uM [%]"
1,CCc1nnc(NS(=O)(=O)c2ccc(NC(=O)c3ccccc3O)cc2)s1,10.2
2,COc1cccc(N(C(=O)Cc2cccs2)C(C(=O)NC2CCCC2)c2ccncc2)c1 (stereo not shown),14.6
3,COc1ccc(/C=C(/NC(=O)c2ccco2)C(=O)Nc2cccc(C(=O)O)c2)cc1,15.9
4,CCSc1nnc(NC(=O)C2C3CCC(C3)C2C(=O)O)s1 (stereo not shown),7.47
5,CS(=O)(=O)c1ccc(NC(=O)c2cccc(S(=O)(=O)N3CCN(Cc4ccccc4)CC3)c2)cc1,5.09
6,C#CCOc1c(Br)cc(/C=N/O)cc1OCC,7.1
7,CC(Nc1cc(C)cc(C)c1)=[N+](C)CCNS(=O)(=O)c1ccc(Cl)cc1.[I-],-15.8
8,CC(SCC(=O)Nc1ccc(S(=O)(=O)N2CCCCC2)cc1)C(=O)O (stereo not shown),7.05
9,CCOc1ccccc1OCC(=O)Nc1cc(S(=O)(=O)N2CCCCC2)ccc1OC,-2.62
10,CCOC(=O)N1CCN(C(=O)C(NC(=O)c2ccc(C(C)(C)C)cc2)C(C)C)CC1 (stereo not shown),-2.48
11,O=C(Cc1ccc(-n2c(=O)c3ccccc3n(Cc3ccccc3F)c2=O)cc1)NCC1CCCO1 (stereo not shown),5.51
12,CC(CN1CCCCC1)OC(=O)c1cccc(F)c1.Cl (stereo not shown),9.48
13,COc1cccc(-n2c(SCC(=O)N3CCOCC3)nc3c([nH]c4ccccc43)c2=O)c1,-3.04
14,Cc1ccc(-c2nc(C3CCN(S(=O)(=O)c4ccc(C(F)(F)F)cc4)CC3)no2)cc1,8.97
15,O=C1CCC(C(=O)OCC(=O)N2N=C3/C(=C/c4ccccc4)CCCC3C2c2ccccc2)N1 (stereo not shown),-1.66
16,CCC(CC)c1nnc(NC(=O)c2cc(-c3ccccc3)nc3ccccc23)s1,10.3
17,Cn1ccs/c1=N\S(=O)(=O)c1ccc(C(C)(C)C)cc1,12
18,CCOc1ccc(-c2cc(C(=O)NCCCn3ccnc3)c3ccccc3n2)cc1,4.41
19,Cn1c(=O)oc2cc(S(=O)(=O)N3CCc4ccccc4C3)ccc21,13.2
20,CCCCC1=CC2=CC(=O)C(C)(OC(=O)CC)C(=O)C2=CN1Cc1ccc2c(c1)OCO2 (stereo not shown),-0.198
21,CN1CCc2c(C#N)c(N3CCCCC3)nc(N3CCOCC3)c2C1,-10.7
22,NC(=O)c1cc(NC(=O)CCNS(=O)(=O)c2cccc(C(F)(F)F)c2)cc(C(N)=O)c1,6.43
23,C/C(=N\Nc1ccc(F)cc1F)c1ccc(Br)s1,4.35
24,CCOc1ccc(NC(=S)NC(=O)Cc2ccccc2)cc1,17.8
25,COc1cccc(-c2nn(-c3ccccc3)cc2CNC(C)Cn2cncn2)c1 (stereo not shown),-6.83
26,COc1cc(NC(=O)CCCNC(=O)c2ccc(Cl)cc2)cc(OC)c1OC,11.6
